The other results are listed elsewhere or left out. Many values rest on one well or one pass, so single values are uncertain.
How the values were obtained:
Assay in all cases: cell count relative to DMSO control; melanoma cells; higher = more viable cells
Settings in all cases: library dose: standard library concentration; 72 h
IST-MEL1 = tested on: IST-MEL1
LB2518-MEL = tested on: LB2518-MEL
LOXIMVI = tested on: LOXIMVI
MEL-HO = tested on: MEL-HO
MZ2-MEL = tested on: MZ2-MEL
MeWo = tested on: MeWo
RPMI7951 = tested on: RPMI7951
RVH-421 = tested on: RVH-421
SkMel28 = tested on: SkMel28
SkMel2 = tested on: SkMel2
SkMel30 = tested on: SkMel30
SkMel5 = tested on: SkMel5
UACC257 = tested on: UACC257
UACC62 = tested on: UACC62
WM115 = tested on: WM115
WM1716 = tested on: WM1716
WM1745 = tested on: WM1745
WM3526 = tested on: WM3526
WM3619 = tested on: WM3619
WM451Lu = tested on: WM451Lu
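Note: cells treated in 1,536-well plates, then fixed and DAPI-stained, with nuclei counted from automated high-throughput microscope images.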

SMILES | cell count (IST-MEL1) [%] | cell count (LB2518-MEL) [%] | cell count (LOXIMVI) [%] | cell count (MEL-HO) [%] | cell count (MZ2-MEL) [%] | cell count (MeWo) [%] | cell count (RPMI7951) [%] | cell count (RVH-421) [%] | cell count (SkMel28) [%] | cell count (SkMel2) [%] | cell count (SkMel30) [%] | cell count (SkMel5) [%] | cell count (UACC257) [%] | cell count (UACC62) [%] | cell count (WM115) [%] | cell count (WM1716) [%] | cell count (WM1745) [%] | cell count (WM3526) [%] | cell count (WM3619) [%] | cell count (WM451Lu) [%]
COc1ccc(-c2ccc3c(N4CCOCC4)nc(N4C[C@@H](C)O[C@@H](C)C4)nc3n2)cc1CO + c1cc(-c2cnn3cc(-c4ccc(OCCN5CCCCC5)cc4)cnc23)ccn1 [Dorsomorphin] (first compound 0.1 µM, partner dose 2 µM) | 87.1 | 57.4 | 88.4 | 79.1 | 55.3 | 53 | 66.9 | 99.6 | 79.5 | 91.3 | 75.3 | 55.4 | 79.1 | 85.7 | 72.1 | 59.3 | 67.5 | 75.2 | 86.9 | 70.9
Oc1cc(-c2nc(-c3ccccc3)[nH]c2-c2ccncc2)ccc1Cl + O=c1cc(-c2cccc3c2Sc2ccccc2S3)oc(N2CCOCC2)c1 [KU55933] (first compound 1 µM, partner dose 5 µM) | 79.3 | 91 | 122 | 78.7 | 95.1 | 87 | 52.1 | 95.7 | 50.9 | 21.4 | 83.9 | 66.1 | 102 | 61.9 | 42.3 | 71.1 | 58 | 60.6 | 67.8 | 58.9
COc1cc2ncnc(Nc3ccc(Oc4ccccc4)cc3)c2cc1OC + Cn1cc(/C=C2\C(=O)Nc3cccnc32)c2ccccc21 [GW441756] (first compound 10 µM, partner dose 2 µM) | 89.5 | 109 | 65.8 | 83.7 | 58.9 | 69.9 | 50.3 | 106 | 60.1 | 88.6 | 79 | 54.1 | 65.2 | 64.1 | 55.2 | 77.5 | 40.5 | 57.4 | 38.4 | 73.5
O=C(O)C(=O)Nc1sc2c(c1C(=O)O)CCNC2 + O=c1cc(-c2cccc3c2Sc2ccccc2S3)oc(N2CCOCC2)c1 [KU55933] (first compound 8.33333 µM, partner dose 5 µM) | 105 | 101 | 98.5 | 93.1 | 115 | 99.7 | 94.9 | 96.5 | 87.1 | 90.9 | 123 | 82.9 | 93.9 | 155 | 108 | 91.9 | 86.3 | 90.1 | 110 | 93
COc1ccc(COc2ccc(Cc3cnc(N)nc3N)cc2OC)cc1 + Cn1cc(/C=C2\C(=O)Nc3cccnc32)c2ccccc21 [GW441756] (first compound 5 µM, partner dose 2 µM) | 108 | 118 | 98.5 | 82.9 | 78.9 | 100 | 83.4 | 99.7 | 96.6 | 103 | 81 | 58.9 | 77 | 98.1 | 106 | 103 | 75.3 | 79.3 | 88.6 | 101
CCN(CC)CCCCNc1ncc2cc(-c3cc(OC)cc(OC)c3)c(NC(=O)NC(C)(C)C)nc2n1 + COc1ccc(COc2ccc(Cc3cnc(N)nc3N)cc2OC)cc1 [GW2580] (first compound 0.5 µM, partner dose 5 µM) | 101 | 143 | 89.5 | 101 | 106 | 86.7 | 120 | 107 | 106 | 92.4 | 84.2 | 83.3 | 88.3 | 106 | 95.4 | 99.2 | 99.4 | 92.2 | 84.4 | 76.2
CCN(CC)CCCCNc1ncc2cc(-c3cc(OC)cc(OC)c3)c(NC(=O)NC(C)(C)C)nc2n1 + c1cc(-c2cnn3cc(-c4ccc(OCCN5CCCCC5)cc4)cnc23)ccn1 [Dorsomorphin] (first compound 0.5 µM, partner dose 2 µM) | 91.5 | 73 | 84 | 101 | 69.8 | 55.6 | 97.7 | 99.5 | 85.9 | 90.3 | 83.7 | 73 | 94 | 113 | 72.8 | 85.6 | 58.2 | 91.1 | 74.6 | 71.4
CCN(CC)CCCCNc1ncc2cc(-c3cc(OC)cc(OC)c3)c(NC(=O)NC(C)(C)C)nc2n1 + Cn1cc(/C=C2\C(=O)Nc3cccnc32)c2ccccc21 [GW441756] (first compound 0.5 µM, partner dose 2 µM) | 107 | 82.4 | 89.2 | 86.4 | 81.1 | 94.7 | 100 | 117 | 87.7 | 99 | 75.3 | 53.5 | 84.7 | 71.1 | 90.4 | 92.4 | 60.2 | 89.6 | 65.2 | 106
CCN(CC)CCCCNc1ncc2cc(-c3cc(OC)cc(OC)c3)c(NC(=O)NC(C)(C)C)nc2n1 + Oc1nc(-c2ccc(C(F)(F)F)cc2)nc2c1CSCC2 [XAV939] (first compound 0.5 µM, partner dose 10 µM) | 103 | 93.7 | 87.3 | 91.9 | 113 | 90.6 | 70.8 | 88.4 | 84.8 | 101 | 108 | 77.8 | 86.6 | 103 | 78.2 | 78.1 | 68.5 | 85.9 | 92.2 | 89.2
COc1cc2ncnc(Nc3ccc(Oc4ccccc4)cc3)c2cc1OC + Oc1cc(-c2nc(-c3ccccc3)[nH]c2-c2ccncc2)ccc1Cl [L779450] (first compound 10 µM, partner dose 1 µM) | 71 | 120 | 56.5 | 95.3 | 83.1 | 75.6 | 49.3 | 85.1 | 34.6 | 38.2 | 98.5 | 75.5 | 92.6 | 52.2 | 46.4 | 70.1 | 49.1 | 51 | 54.8 | 52.1
COC(=O)c1sccc1S(=O)(=O)Nc1ccc(Nc2ccccc2)cc1OC + CC(C)CCN1c2nc(Nc3cc(F)c(O)c(F)c3)ncc2N(C)C(=O)C1C [BID1870] (first compound 5 µM, partner dose 1 µM) | 83.2 | 94 | 74.3 | 69.7 | 94.1 | 80.5 | 95.8 | 87.7 | 55 | 68.9 | 78.5 | 70.9 | 65.4 | 87 | 92.5 | 62.3 | 107 | 54.1 | 71.6 | 81.4
N#Cc1c(O)c2c(-c3ccc(-c4ccccc4O)cc3)csc2[nH]c1=O + Oc1nc(-c2ccc(C(F)(F)F)cc2)nc2c1CSCC2 [XAV939] (first compound 10 µM, partner dose 10 µM) | 91.1 | 101 | 283 | 82.7 | 85.2 | 78.4 | 105 | 88.3 | 100 | 116 | 95.5 | 89 | 85.6 | 89.6 | 112 | 102 | 88.9 | 101 | 71.1 | 93.9
O=C(O)C(=O)Nc1sc2c(c1C(=O)O)CCNC2 + CCCCCCCCCCCC1=C(O)C(=O)C=C(O)C1=O [Embelin] (first compound 8.33333 µM, partner dose 6 µM) | 76.9 | 87.1 | 125 | 73.9 | 94.7 | 87.2 | 112 | 77.2 | 85.9 | 93.9 | 102 | 84.3 | 78.2 | 120 | 80.8 | 88.5 | 71.2 | 88.9 | 83.6 | 89.6
CCN(CC)CCCCNc1ncc2cc(-c3cc(OC)cc(OC)c3)c(NC(=O)NC(C)(C)C)nc2n1 + O=C(O)C(=O)Nc1sc2c(c1C(=O)O)CCNC2 [TCS401] (first compound 0.5 µM, partner dose 8.33333 µM) | 112 | 100 | 95.5 | 103 | 104 | 103 | 105 | 103 | 106 | 86.1 | 118 | 68.8 | 106 | 113 | 81.9 | 113 | 109 | 75 | 137 | 96.9
O=S(=O)(c1ccccc1)N(CC(F)(F)F)c1ccc(C(O)(C(F)(F)F)C(F)(F)F)cc1 + CC(C)CCN1c2nc(Nc3cc(F)c(O)c(F)c3)ncc2N(C)C(=O)C1C [BID1870] (first compound 7 µM, partner dose 1 µM) | 85.1 | 142 | 76.5 | 70.6 | 99.4 | 63.8 | 90.3 | 76.7 | 67 | 68.8 | 85.4 | 64 | 78.7 | 69.9 | 92.5 | 95 | 82.1 | 66 | 79.6 | 85.5
Oc1cc(-c2nc(-c3ccccc3)[nH]c2-c2ccncc2)ccc1Cl + CC(C)CCN1c2nc(Nc3cc(F)c(O)c(F)c3)ncc2N(C)C(=O)C1C [BID1870] (first compound 1 µM, partner dose 1 µM) | 79.5 | 143 | 101 | 68.8 | 84.5 | 65.5 | 67.8 | 88 | 44.7 | 25.6 | 71.2 | 58.8 | 77.3 | 57.8 | 64 | 57.3 | 54 | 46.8 | 42.5 | 51.8
COC(=O)c1sccc1S(=O)(=O)Nc1ccc(Nc2ccccc2)cc1OC + O=C(O)C(=O)Nc1sc2c(c1C(=O)O)CCNC2 [TCS401] (first compound 5 µM, partner dose 8.33333 µM) | 95.6 |  | 127 | 90.6 |  | 103 | 81.4 | 113 | 75.9 |  | 107 | 78.1 | 86.8 | 98.2 | 93.9 | 98.5 | 74.5 | 82.8 | 69.8 | 78.2

Reference: the supplement of paper PMC4604168 (melanoma cell lines)
